From patent US20070219159A1, “CYCLODEXTRIN COMPOSITIONS AND METHODS OF TREATING VIRAL INFECTIONS” (priority 2002, published 2007)
Where two headings read alike, the source gives them in different places.

Tested on: d27-lacZ1 (β-galactosidase expressing recombinant HSV-1)
Settings: pre- plus post-infection treatment, in situ staining 8-12 hours PI, ACV 400 μg/ml

OC[C@H]1O[C@@H]2O[C@H]3[C@H](O)[C@@H](O)[C@@H](O[C@H]4[C@H](O)[C@@H](O)[C@@H](O[C@H]5[C@H](O)[C@@H](O)[C@@H](O[C@H]6[C@H](O)[C@@H](O)[C@@H](O[C@H]7[C@H](O)[C@@H](O)[C@@H](O[C@H]8[C@H](O)[C@@H](O)[C@@H](O[C@H]1[C@H](O)[C@H]2O)O[C@@H]8CO)O[C@@H]7CO)O[C@@H]6CO)O[C@@H]5CO)O[C@@H]4CO)O[C@@H]3CO [BCD, β-cyclodextrin]
expression of ICP27 promoter driven β-galactosidase reporter gene: almost complete virus protection
expression of ICP27 promoter driven β-galactosidase reporter gene (listed as β-CD): almost totally inhibited
